# From the supplement of paper PMC8512760
# Structures can show the parent of a compound that is named as a salt. The list shows a part of the results. Many values rest on one well or one pass, so single values are uncertain.
# Test system: HCC-1143
# Assay: cell viability relative to vehicle (% of vehicle); basal-like triple-negative breast cancer lines; higher = less cytotoxic
# Details: 10 µM; 72 h
# 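Further: stably firefly luciferase-GFP labeled cells in 96-well plates, viability read as luciferase photon flux after d-luciferin addition, treated wells normalized to vehicle wells, single-dose high-throughput screen.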
row,Structure (SMILES),cell viability
1,Cn1c(=O)c2c(ncn2CC2OCCO2)n(C)c1=O [Doxofylline],75.1
2,Nc1c(CC(=O)[O-])cccc1C(=O)c1ccccc1.O.[Na+] [Amfenac Sodium Monohydrate],77.6
3,Cl.NC(N)=NC(=O)Cc1c(Cl)cccc1Cl [Guanfacine hydrochloride],90.8
4,CO[C@H]1/C=C/O[C@@]2(C)Oc3c(C)c(O)c4c(c3C2=O)C(=O)/C(=C/NN2CCN(C)CC2)C(=C4O)NC(=O)/C(C)=C/C=C/[C@H](C)[C@H](O)[C@@H](C)[C@@H](O)[C@@H](C)[C@H](OC(C)=O)[C@@H]1C [Rifampin],73.6
5,CCCC(NC(C)C(=O)N1C(C(=O)O)CC2CCCCC21)C(=O)OCC (stereo not drawn) [Perindopril],75.6
6,Cl.NCCCC(N)(C(=O)O)C(F)F.O (racemic) [DL-α-Difluoromethylornithine (hydrochloride hydrate)],64.1
7,Cc1onc(-c2ccccc2)c1-c1ccc(S(N)(=O)=O)cc1 [Valdecoxib],124
8,Nc1cc(C(Cl)=C(Cl)Cl)c(S(N)(=O)=O)cc1S(N)(=O)=O [Clorsulon],69.3

# Test system: HCC-1187
# Assay: as above
# Details: 10 µM; 72 h
row,Structure (SMILES),cell viability
1,CO[C@H]1/C=C/O[C@@]2(C)Oc3c(C)c(O)c4c(O)c(c(/C=N/N5CCN(C6CCCC6)CC5)c(O)c4c3C2=O)NC(=O)/C(C)=C\C=C\[C@H](C)[C@H](O)[C@@H](C)[C@@H](O)[C@@H](C)[C@H](OC(C)=O)[C@@H]1C [Rifapentine],71.4
2,CC1(C)SC2C(NC(=O)C(N)c3ccccc3)C(=O)N2C1C(=O)[O-].[Na+] (stereo not drawn) [Ampicillin],91.7
3,CCOC(=O)C1=C(C)NC(C)=C(C(=O)OC)C1c1cccc(Cl)c1Cl (stereo not drawn) [Felodipine],82.3
4,CCCC(=O)OC1(C(=O)COC(C)=O)CCC2C3CC(F)C4=CC(=O)C=CC4(C)C3(F)C(O)CC21C (stereo not drawn) [Difluprednate],108
5,CNS(=O)(=O)Cc1ccc2[nH]cc(CCN(C)C)c2c1 [Sumatriptan],87
6,COc1cc2ncnc(Nc3ccc(F)c(Cl)c3)c2cc1NC(=O)C=CCN1CCCCC1,28.3
7,CN1CCC(=C2c3ccccc3CC(=O)c3sccc32)CC1.O=C(O)C=CC(=O)O [Ketotifen Fumarate],111
8,CC(Cc1cc2c(c(C(N)=O)c1)N(CCCO)CC2)NCCOc1ccccc1OCC(F)(F)F (stereo not drawn) [Silodosin],100
9,NC1CCCCC1N.O=C([O-])C(=O)[O-].[Pt+2] (stereo not drawn) [Oxaliplatin],68.6
10,c1cc(CN2CCCNCCNCCCNCC2)ccc1CN1CCCNCCNCCCNCC1 [Plerixafor (AMD3100)],88.7
11,CNC(=O)C(Cc1c[nH]c2ccccc12)NC(=O)C(CC(=O)NO)CC(C)C (stereo not drawn),62
12,CC(C)C(=O)OCC(=O)[C@@]12O[C@H](C3CCCCC3)O[C@@H]1C[C@H]1[C@@H]3CCC4=CC(=O)C=C[C@]4(C)[C@H]3[C@@H](O)C[C@@]12C [Ciclesonide],103
13,Nc1ccn([C@@H]2O[C@H](CO)[C@@H](O)C2(F)F)c(=O)n1 [Gemcitabine HCl],64
14,CC(=O)Oc1cc(C(F)(F)F)ccc1C(=O)O [Triflusal],85.8
15,CN1CCC(COc2cnc(-c3cccc(Cn4nc(-c5cccc(C#N)c5)ccc4=O)c3)nc2)CC1,44.3
16,CC1C(NC(=O)C(=NOC(C)(C)C(=O)O)c2csc(N)n2)C(=O)N1S(=O)(=O)O (stereo not drawn) [Aztreonam],106
17,CS(=O)(=O)O.Cc1c(O)cccc1C(=O)NC(CSc1ccccc1)C(O)CN1CC2CCCCC2CC1C(=O)NC(C)(C)C (stereo not drawn) [Nelfinavir Mesylate],102
18,Nc1ccc(S(=O)(=O)c2ccc(N)cc2)cc1 [Dapsone],107
19,Cl.Cl.OCCOCCN1CCN(C(c2ccccc2)c2ccc(Cl)cc2)CC1 (stereo not drawn) [Hydroxyzine 2HCl],114
20,Br.CN1CCCC1Cc1c[nH]c2ccc(CCS(=O)(=O)c3ccccc3)cc12 (stereo not drawn) [Eletriptan HBr],94.8

row,Structure (SMILES),cell viability
1,COc1cccc2c1C(=O)c1c(O)c3c(c(O)c1C2=O)CC(O)(C(=O)CO)CC3OC1CC(N)C(O)C(C)O1.Cl (stereo not drawn) [Epirubicin HCl],16.7
2,CC(=O)NCC1CN(c2ccc(N3CCOCC3)c(F)c2)C(=O)O1 (stereo not drawn) [Linezolid],89.3
3,CCCCCC(O)C=CC1C(O)CC(=O)C1CCCCCCC(=O)O (stereo not drawn) [Alprostadil],90.2
4,CCCC1CC(C(=O)NC(C(C)Cl)C2OC(SC)C(O)C(O)C2O)N(C)C1.Cl (stereo not drawn) [Clindamycin HCl],80.5
5,Cc1ccc(Cl)c(Nc2ccccc2C(=O)[O-])c1Cl.[Na+] [Meclofenamate Sodium],118
6,CC(C)(C)N.CCCC(NC(C)C(=O)N1C(C(=O)O)CC2CCCCC21)C(=O)OCC (stereo not drawn) [Perindopril Erbumine],114
7,CN(C)c1nc(N(C)C)nc(N(C)C)n1 [Altretamine],97.4
8,CC(C)(C)Cn1c(N)nc2ccc(-c3[nH]c(C(C)(C)C)nc3-c3ccc(F)cc3)nc21.CS(=O)(=O)O.CS(=O)(=O)O,79.6
9,CCC1C(O)C2C3CCC(C(C)CCC(=O)O)C3(C)CCC2C2(C)CCC(O)CC12 (stereo not drawn) [Obeticholic Acid],90.9
10,O=c1[nH]c(=O)n(C2CC(O)C(CO)O2)cc1F (stereo not drawn) [Floxuridine],39
11,CC(N)(Cc1ccc(O)c(O)c1)C(=O)O (stereo not drawn) [Methyldopa],87.8
12,COc1cc(C=CC(=O)N2CCN(CC(=O)N3CCCC3)CC2)cc(OC)c1OC.O=C(O)C=CC(=O)O [Cinepazide maleate],76.9
13,Cn1c(=O)c2c(ncn2CC2OCCO2)n(C)c1=O [Doxofylline],98
14,Nc1c(CC(=O)[O-])cccc1C(=O)c1ccccc1.O.[Na+] [Amfenac Sodium Monohydrate],79.2
15,Cl.NC(N)=NC(=O)Cc1c(Cl)cccc1Cl [Guanfacine hydrochloride],101
16,CO[C@H]1/C=C/O[C@@]2(C)Oc3c(C)c(O)c4c(c3C2=O)C(=O)/C(=C/NN2CCN(C)CC2)C(=C4O)NC(=O)/C(C)=C/C=C/[C@H](C)[C@H](O)[C@@H](C)[C@@H](O)[C@@H](C)[C@H](OC(C)=O)[C@@H]1C [Rifampin],75.2
17,CCCC(NC(C)C(=O)N1C(C(=O)O)CC2CCCCC21)C(=O)OCC (stereo not drawn) [Perindopril],77.3
18,Cl.NCCCC(N)(C(=O)O)C(F)F.O (racemic) [DL-α-Difluoromethylornithine (hydrochloride hydrate)],79
19,Cc1onc(-c2ccccc2)c1-c1ccc(S(N)(=O)=O)cc1 [Valdecoxib],88.6
20,Nc1cc(C(Cl)=C(Cl)Cl)c(S(N)(=O)=O)cc1S(N)(=O)=O [Clorsulon],73.6
